Out of some 48,000 compounds screened, about 450 (0.94%) were called active. About 19% were inconclusive and are not listed. Calls come from the whole dose curve; as a rule, active = well fitted inhibition curve with a large enough effect; inconclusive = small, poorly fitted or top-dose-only effect; inactive = no such curve, though single readings can be large or run the other way. This is one part of the list.
test: Primary qHTS for Identification of Small Molecule Inhibitors of Huntingtin Promoter Activity; details: HEK293 HTT promoter firefly luciferase reporter (activity 0% = vehicle and -100% = no light), 24 h; series mostly up to 57.5 µM; activity change, negative = inhibition: at the top concentration; note: nearly all actives have a fitted effect of over 50% in size
Method in brief: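 Quantitative HTS used concentration series of up to 57.5 uM final on HEK293 luciferase reporter cells, 24 h at 37 degrees C. Readout was Dual-Glo firefly luminescence.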
Potency is the fitted concentration of half-maximal effect.

Activity change, negative = inhibition, inactive:
CC(=O)N1CCc2c(sc3c2c(=O)n(-c2ccc(C)cc2)c(=O)n3Cc2ccccc2C)C1 -24.2%
CCCCNC(=O)c1ccc2c(c1)NC(=O)C(CS(=O)(=O)Cc1ccc(C)cc1)N2 (stereo not given) -8.76%
CCCCN(C)S(=O)(=O)c1ccc(C(=O)Nc2ccc(-c3nc4ccc(C)cc4s3)cc2)cc1 57.7%
CC(C)C(=O)OCc1cc(=O)n2nc(C3CC3)sc2n1 18.3%
Cc1cccc(C)c1NC(=O)CN1CCCCCC1 11.2%
CCN1CCN(c2oc(/C=C/c3cc(OC)c(OC)c(OC)c3)nc2C#N)CC1 -11.8%
Cc1cc(Cl)ccc1NC(=O)CCCn1nc(C)c2c(C)n(-c3ccccc3)nc2c1=O -23.9%
CCc1ccc(C2c3c(oc4cc(C)c(C)cc4c3=O)C(=O)N2c2nc(C)c(C(=O)OC)s2)cc1 (stereo not given) 14.9%
CCC1CN(C(=O)Nc2cc(Cl)c(OC)cc2OC)c2ccccc2O1 (stereo not given) -5.31%
Cc1cc(C)cc(NC(=O)CSc2nc3sc4c(c3c(=O)[nH]2)CCCC4)c1 -13.2%
COc1cc(OC)c(C2C(C(=O)Nc3ccccc3)=C(C)Nc3ncnn32)cc1OC (stereo not given) -3.89%
COc1ccc(-c2noc(CC(=O)Nc3ccc(C)c(F)c3)n2)cc1 5.56%
CSc1ccc(CCNC(=O)c2cc3cc4cc(C)ccc4nc3s2)cc1 27.5%
CCc1nn(CC(=O)NCCCc2ccccc2)c(=O)c2cc3ccccc3n12 12%
Cc1c(Cl)cccc1NC(=O)Cn1c(=O)n(Cc2nc(-c3ccccc3)no2)c(=O)c2cc3c(cc21)OCO3 -4.28%
CCCC(=O)Nc1cccc(-c2cn3c(C)csc3n2)c1 -6.23%
CCc1ccc(CNC(=O)c2cnc3c(C)cccn3c2=O)cc1 9.23%
COC(=O)c1sccc1S(=O)(=O)N(CC(=O)Nc1ccccc1)c1ccccc1 -10%
Cc1ccc(Nc2cc(C)c(C#N)c3nc4ccccc4n23)c(C)c1 -13.4%
Cc1c(Cl)cccc1NC(=O)C1CCN(c2nc3ccccc3[nH]2)CC1 -4.22%
CCc1ccc(-c2nc(CS(=O)CC(=O)NCCc3ccc(C)cc3)c(C)o2)cc1 (stereo not given) -26.7%
CC(C)c1cnc2c(c1SCC(=O)NC(C)(C)C)c(=O)n(C)c(=O)n2C 5.75%
CCn1cc2c(n1)-c1c(oc(C(=O)Nc3ccc(Br)cc3F)c1C)CC2 32%
O=C(O)CC1c2ccccc2CCN1C(=O)Nc1cc(Cl)ccc1Cl (stereo not given) -21%
Cc1ccc(CN(C(=O)c2ccc(OCC(C)C)cc2)c2ccccn2)o1 -1.9%
CCOC(=O)c1noc2nc(C)n(CC(=O)Nc3cccc(OC)c3)c(=O)c12 -5.44%
CCCCC1CCC(C(=O)N2CC(=O)Nc3ccc(Br)cc3C2c2ccc(F)cc2)CC1 (stereo not given) -43.3%
COC(=O)COc1ccc(-c2nnc(Nc3ccc(O)cc3)c3ccccc23)cc1 0.0215%
CCc1ccc(S(=O)(=O)c2nnn3c2nc(N2CCN(c4ccccc4)CC2)c2cc(Cl)ccc23)cc1 4.97%
Cc1cccc2c1-c1sc(C(=O)Nc3ccc(F)cc3F)cc1CO2 -12.2%
CCN(CC)C(=O)Cn1c(=O)n(CCCCCC(=O)NCc2ccc3c(c2)OCO3)c(=O)c2sccc21 -10.9%
O=c1c2sc3ccccc3c2n(Cc2cccc(F)c2)c(=O)n1CCc1ccccc1 43.4%
CCC(=O)OCc1cc(=O)n2nc(C3CC3)sc2n1 6.87%
Cc1ccc(NC(=O)CN2C(=O)COc3ccc(S(=O)(=O)N4CCCCCC4)cc32)c(C)c1 -8.28%
Cc1ccc(CNC(=O)C(=O)Nc2c3c(nn2-c2ccc(F)cc2)CSC3)cc1 -19.4%
Cc1ccc(CNC(=O)c2ccc(N3CCCC3)c(NC(=O)Nc3ccc(C)cc3)c2)cc1 -1.9%
CCCc1cc(=O)oc2c3c(ccc12)OCN(Cc1ccccc1OC)C3 -28.1%
CN(C(=O)Cn1nc(Cc2cccnc2)c2ccccc2c1=O)c1cccc(C(F)(F)F)c1 -12.7%
COC(=O)c1ccccc1NC(=O)[C@H]1O[C@@H]2OC(C)(C)O[C@@H]2[C@H]2OC(C)(C)O[C@H]21 -9.07%
Cc1cc(C)cc(OCC(=O)Nc2cccc3cccnc23)c1 1.71%
CCCCCCC(=O)Nc1ccc2nc3c(=O)n(C)c(=O)n(C)c3nc2c1C -8.83%
CCCc1cnc2c(c1SCC(=O)NCc1ccc(C)cc1)c(=O)n(C)c(=O)n2C -12.4%
CC(=O)Nc1cccc(-c2nc(-c3ccccc3)no2)c1 55.6%
COc1ccccc1CCNC(=O)Cc1c(C)c2cc(Cl)c(O)cc2oc1=O -7.44%
CC(C)c1ccc(S(=O)(=O)N2CCN(Cc3cccc(F)c3)CC2)cc1 -39%
CC(=O)OCC(=O)[C@@]1(O)CCC2C3CCC4=CC(=O)CC[C@]4(C)C3[C@@H](O)C[C@@]21C (stereo not given in full) 3.23%
COc1ccc(C)c2sc(NC(=O)c3ccc(S(=O)(=O)N(C)C)cc3)nc12 1.59%
CCOC(=O)C1CCN(C(=O)c2cc3sc(C)cc3n2C)CC1 12.8%
Cc1ccc(N(C)C(=O)c2sc3nc4n(c(=O)c3c2C)CCCC4)cc1C -23.7%
COCCCn1c(=O)c2sccc2n2c(CCCC(=O)NCc3cccc(OC)c3)nnc12 -16.3%
CN(C)CC[C@@H](c1ccc(Cl)cc1)c1ccccn1 9.99%
CCN1C(=O)c2ccccc2S(=O)(=O)c2ccc(C(=O)NCc3ccccc3)cc21 -19%
O=C(CSc1ncc(-c2ccccc2)[nH]1)Nc1ccccc1 7.77%
CCOC(=O)C1CCN(C(=O)c2ccccc2NC(=O)c2nsc3ccccc23)CC1 -8.73%
CCOC(=O)C1CCC(CN(Cc2ccc(Cl)cc2)S(=O)(=O)c2cccc(Cl)c2C)CC1 (stereo not given) 14.4%
Cc1nc2nc(NC(=O)c3ccc(C(C)(C)C)cc3)[nH]n2c(=O)c1C -4.88%
O=C(CCC1N=C2c3ccccc3N=C(SCC(=O)Nc3cccc(Cl)c3)N2C1=O)NCc1ccco1 (stereo not given) -5.33%
NC(=O)C1CCN(S(=O)(=O)c2cc3c(cc2Cl)NC(=O)CO3)CC1 -20.7%
CC1(C)S[C@@H]2[C@H](NC(=O)C(c3ccccc3)S(=O)(=O)O)C(=O)N2[C@H]1C(=O)O (stereo not given in full) 6.35%
CCc1ccc(OCC2c3cc(OC)c(OC)cc3CCN2C(=O)c2ccc(S(=O)(=O)N3CCCC3)cc2)cc1 (stereo not given) -23.8%
CCn1cc(C(=O)NCCCOC(C)C)c(=O)c2cc(S(=O)(=O)N3CCOCC3)ccc21 1.74%
CCOC(=O)c1cnc2c(ccc3ccccc32)c1Nc1ccc(N(C)C)cc1 -23.9%
Cc1cc(NC(=O)N2CCC(CN3CCCCCC3)CC2)ccc1Br 9.38%
COC(=O)c1ccc2c(=O)n(CCCCCC(=O)NCCc3ccccc3)c(=O)[nH]c2c1 3.38%
CN(CCOc1ccc(CC2SC(=O)NC2=O)cc1)c1ccccn1 (stereo not given)
O=S(=O)(c1ccc(Cl)cc1)c1nnn2c1nc(NC1CCCC1)c1sccc12 2.72%
COc1ccc(N2CCN(C(CNS(=O)(=O)c3ccc(OC)c(C)c3)c3ccco3)CC2)cc1 (stereo not given) -20.3%
COc1ccc(C)cc1-n1c(-c2ccc(Cl)cc2)cc2c1CC(C)(C)CC2=O 4.27%
COc1ccc(-c2nc(Cn3c(=O)cc(C)c4c(C)nn(-c5ccccc5)c43)c(C)o2)cc1OC -4.84%
Cc1ccc(NC(=O)Cn2c(=O)n(-c3ccc(C)cc3)c(=O)c3c2cnn3C)cc1 -2.42%
Cc1ccc(-n2nc(C)c3c(C)c(CCC(=O)NC(C)c4ccccc4)c(C)nc32)cc1 (stereo not given) -5.39%
Fc1ccc(CN2CCc3nc(N4CCN(c5ccccc5F)CC4)ncc3C2)c(F)c1 -47.5%
CCOc1ccc(NC(=O)c2c(C)oc3nc(C)nc(N4CCCC4)c23)cc1 -6.21%
COc1ccc(CCNC(=O)CCc2cn(Cc3ccccc3Cl)c3ccccc23)c(OC)c1 -26.3%
O=C(NCCc1ccc(Cl)cc1)C1CCN(Cc2cc3ccccc3n2Cc2ccccc2)CC1 -27.1%
CCOc1ccc(-c2cc(NC(=O)c3ccccc3)c(C(=O)OC)s2)cc1 9.29%
COc1ccccc1CCNC(=O)c1cccn1-c1nnc(N2CCCC2)s1 -1.66%
Cc1ccc(Cl)cc1N1CCN(c2ncnc3c2nc2n3CCCC2)CC1 -4.71%
CCOc1ccc(Nc2cc(C)nc3nncn23)cc1 -2.78%
Cc1ccccc1NC(=O)Cn1cc(S(=O)(=O)c2ccccc2)c(=O)c2ccccc21 -15.2%
COc1ccc(NC(=O)c2cc3c(-c4ccccc4F)nn(C)c3s2)c(OC)c1 -19.1%
CCCn1c2ccccc2c2cnn(CC(=O)NCCCN3CCCCC3CC)c(=O)c21 (stereo not given) -8.32%
CC(CNC(=O)c1ccc(Cn2c(=O)c3cccn3c3cccnc32)cc1)c1ccccc1 (stereo not given) -21.8%
COc1ccc(-c2c(C)c3cc(OC(=O)N4CCOCC4)ccc3oc2=O)cc1OC -20.3%
COc1cccc(C(=O)CC2(O)C(=O)N(Cc3ccccc3)c3ccccc32)c1 (stereo not given) -19.6%
NC(=O)Cn1c(=O)n(CCCCCC(=O)NCc2ccc3c(c2)OCO3)c(=O)c2sccc21 -0.616%
COc1cccc(Cn2nnc(C(=O)NCc3ccc(Cl)cc3Cl)c2N)c1 -21.2%
CCc1cccc(NC(=O)Cn2c(=O)n3nc(-c4cccc(F)c4)nc3c3ccccc32)c1 -23.5%
CCOc1cc2[nH]c(=O)n(CCCCC(=O)N3CCN(c4ccccc4OC)CC3)c(=O)c2cc1OCC -16.1%
CCCCCCOC(=O)N=C(N)c1ccc(NCc2nc3cc(C(=O)N(CCC(=O)OCC)c4ccccn4)ccc3n2C)cc1 -19.1%
Cc1cn2c(=O)cc(COC(=O)c3ccc(NC(=O)c4ccccc4C)cc3)nc2s1 -13.4%
COc1ccc2c(c1)c1c(c(=O)n(-c3ccc(OC)c(OC)c3)c(=O)n1Cc1ccc(F)cc1)n2C 2.62%
CCOC(=O)C1CCCN(c2c(C(=O)c3ccccc3)cnc3ccc(F)cc23)C1 (stereo not given) -9.95%
Cc1ccccc1NC(=O)COc1ccc2oc3c(c2c1)CCCC3 4.66%

Potency, active:
COc1cc(CNC(=O)c2ccc3nc(Cc4ccccc4)oc3c2)cc(OC)c1OC 14.1 µM

— PubChem BioAssay AID1508623 (National Center for Advancing Translational Sciences (NCATS), 2021)
